In all, about 48,000 compounds went through this assay and about 1,200 (2.5%) were called active. Roughly 2% stayed inconclusive and do not appear here.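 The calls were made as follows: active = activation of at least 60% and not above a set upper limit (about 1 call in 100 departs from these limits); inconclusive = activation of 40% to 60%, or above that upper limit; inactive = activation under 40%.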 The list shows a part of the results.

Sequence of UniProt O75388 (O75388 whole entry, looked up): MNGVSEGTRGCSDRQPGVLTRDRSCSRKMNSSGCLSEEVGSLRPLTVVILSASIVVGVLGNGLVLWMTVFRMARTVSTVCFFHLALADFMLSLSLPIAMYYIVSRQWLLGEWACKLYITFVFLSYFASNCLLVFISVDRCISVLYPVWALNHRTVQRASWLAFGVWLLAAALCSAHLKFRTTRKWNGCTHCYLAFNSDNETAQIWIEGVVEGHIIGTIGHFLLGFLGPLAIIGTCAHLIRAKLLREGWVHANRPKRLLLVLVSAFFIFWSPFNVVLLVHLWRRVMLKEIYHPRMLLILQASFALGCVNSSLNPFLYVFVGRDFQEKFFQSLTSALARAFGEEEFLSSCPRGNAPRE

For this assay, the target named is Probable G-protein coupled receptor 32 (Homo sapiens) (UniProt O75388). The experiment in a line: qHTS for Agonists of Human Resolvin D1 Receptor DRV1. Also: 0% is about no effect. Particulars: CHO-K1 GPR32 beta-arrestin PathHunter luminescence, 90 min; at 76.9 µM; hits give high values; zero percent set by DMSO-only wells. Summed up:
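PathHunter beta-arrestin recruitment in CHO-K1 cells stably expressing ProLink-tagged GPR32. Cells were exposed to compound for 90 min at 37 C, then chemiluminescence was read after 1 h detection at ambient temperature; DMSO served as basal control.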
In general terms: Quantitative high-throughput screening tests each substance at several concentrations.
`CCOc1ccc(C(=O)OCCN(CC)CC)cc1`: the activation is inactive: -2.63%.

As for `CCOc1ccc(NC(=O)c2ccc3[nH]c(C)cc(=O)c3c2)cc1`, the activation is inactive: -5.22%.

For `COc1cccc(CNS(=O)(=O)c2ccc3[nH]c4c(c3c2)CCCCC4)c1`, the activation was active: 64.5%.

`Cc1ccc(C)c(N2CCN(C(=O)c3ccc(-c4nc(COc5ccccc5)c(C)o4)cc3)CC2)c1`: the activation is inactive: -7.5%.

As for `Cc1ccc2c(c1)cc1c(=O)n(CC(=O)N(C)c3ccccc3)nc(C)n12`, the activation was inactive: 6.48%.

With `CC(=O)N1CCc2c(sc3c2c(=O)n(-c2cccc(Cl)c2C)c(=O)n3Cc2ccccc2C)C1`, the activation is inactive: -16.6%.

Take `O=C(CCCCn1c(=O)[nH]c2ccsc2c1=O)N1CCN(c2cccc(C(F)(F)F)c2)CC1`: the activation was active: 74%.

In the case of `COc1ccc(CN(Cc2ccco2)C(=O)COc2ccc(Cl)cc2C)cc1`, the activation is inactive: -24.2%.

Take `CCOC(=O)c1c(S(=O)(=O)N2CCCC(C(=O)NCc3ccc(F)cc3)C2)c(C)n(CC)c1C` (centres undefined): the activation is inactive: -2.36%.

`COc1cccc(-c2nnc(SCC(=O)N3CCCCC3)o2)c1`: the activation is inactive: 0.736%.

Regarding `O=C(OCc1cc(=O)n2nc(-c3cccs3)sc2n1)c1cccc(Cl)c1`, the activation is inactive: 5.28%.

On to `COc1ccc(CNC(=O)C2CCCN(S(=O)(=O)N(C)c3ccc(F)cc3)C2)cc1OC` (centres undefined), for which the activation was inactive: -7.07%.

On to `Cc1ccc(C)c(Cn2c(=O)n(CC3CCC(C(=O)N4CCOCC4)CC3)c(=O)c3sccc32)c1` (centres undefined), for which the activation was inactive: -4.01%.

With `CCOC(=O)c1cccc(NC(=O)c2ccc3c(c2)nnn3CC)c1`, the activation is active: 61.4%.

`CCc1cccc(CC)c1NC(=O)CN(CC(=O)O)CC(=O)O`: the activation was inactive: -24.5%.

For `Cc1ccn2c(NC(=O)c3cccc(Cl)c3)c(-c3ccccc3)nc2c1`, the activation is inactive: -7.52%.

With `CCOCCCn1c(=N)c(C(=O)NC(C)c2ccccc2)cc2c(=O)n3cc(C)ccc3nc21` (centres undefined), the activation was inactive: -9.46%.

For `CCc1ccc(CNc2ncc(-c3cccc(OC)c3)n2C)cc1`, the activation is inactive: -31.6%.

As for `CCCC(=O)N1CCc2cc(OC)c(OC)cc2C1COc1ccccc1OC` (centres undefined), the activation is inactive: 3.55%.

For the molecule `CCOC(=O)Cc1cc(C(=O)Nc2ccc(Br)cc2)sc1-c1ccc(C)cc1`, the activation is inactive: -16.4%.

With `Cc1cccc(C)c1NC(=O)Cn1c(=O)n(Cc2ccc(C(=O)NCc3ccco3)cc2)c(=O)c2sccc21`, the activation is inactive: -7.44%.

As to `Cc1cc(C)cc(OCC(=O)Nc2nonc2-c2ccc(Br)cc2)c1`, the activation was inactive: 29.1%.

For the molecule `Cc1nc2sc(C)c(C)n2c(=O)c1S(=O)(=O)N1CCN(c2ccccc2F)CC1`, the activation is inactive: -5.87%.

Regarding `Cc1cccc(N2CCN(C(=O)c3ccc4nc(N5CCC(C)CC5)sc4c3)CC2)c1C`, the activation was inactive: -0.997%.

Take `Cc1c(C(=O)N(Cc2ccc(N(C)C)cc2)CC2CCCO2)oc2ccccc12` (centres undefined): the activation is inactive: -33.6%.

Regarding `Cc1ccc2c(Sc3ccc(Cl)cc3)c(C(=O)NCCC(C)C)[nH]c2c1`, the activation is inactive: 6.62%.

Regarding `CCc1nnc(SCc2nc(-c3ccccc3Cl)oc2C)c2cc3sc(C)cc3n12`, the activation was inactive: -8.64%.

Turning to `O=C(Nc1nc2c(F)cccc2s1)c1ccc(S(=O)(=O)N2CCOCC2)cc1`, the activation was inactive: 27.3%.

Turning to `CCCSc1ncc(Cl)c(C(=O)Nc2ccc(S(=O)(=O)N3CCCC(C)C3)cc2)n1` (centres undefined), the activation was inactive: -25.3%.

As for `Cc1ccc(NC(=O)CN2C(=O)c3cccnc3Sc3ccccc32)cc1C`, the activation is inactive: -13.6%.

For the molecule `COc1ccc(CN(C(=O)c2ccccc2F)C2CCS(=O)(=O)C2)cc1` (centres undefined), the activation was inactive: -9.98%.

Turning to `COc1ccc2[nH]cc(CCNC(=O)Nc3ccccc3)c2c1`, the activation was active: 66.8%.

With `Cc1ccc(NC(=O)N2CC3CCCN3c3ccccc32)cc1C` (centres undefined), the activation was inactive: -3.32%.

As to `CN(C)c1ccc(CN(Cc2ccco2)C(=O)COc2ccc(F)cc2)cc1`, the activation is inactive: -26.7%.

Consider `Cc1cccc(C(=O)NCC(c2cccs2)S(=O)(=O)c2cccs2)c1` (centres undefined), for which the activation is inactive: 36.2%.

For the molecule `COc1ccccc1CCNC(=O)C(=O)NCC(c1ccco1)S(=O)(=O)c1cccs1` (centres undefined), the activation was inactive: -11.5%.

For the molecule `COc1ccc(C(=O)Nc2ccc(NC(=O)c3cccs3)cc2)cc1OC`, the activation is inactive: -30.8%.

On to `Cc1ccc(S(=O)(=O)NC2(C(F)(F)F)NC(=O)N(c3ccc(F)cc3)C2=O)cc1` (centres undefined), for which the activation was inactive: -1.64%.

As to `CCOCCc1nn2c(=O)cc(COC(=O)c3ccccc3NC(=O)c3ccccc3F)nc2s1`, the activation was inactive: -9.77%.

For `CCOC(=O)c1ccc(CN(Cc2ccc(C)cc2)S(=O)(=O)c2ccc(F)c(C(=O)Nc3ccc(C)c(F)c3)c2)cc1`, the activation is inactive: -21.6%.

In the case of `Cc1ccc(-c2nc3n(n2)C(c2ccccc2Cl)C=C(c2ccc(Cl)cc2)N3)cc1` (centres undefined), the activation is inactive: -4.98%.

For the molecule `CC1CCN(S(=O)(=O)c2ccc3c(c2)CCN3C(=O)Nc2cccc(Br)c2)CC1`, the activation was inactive: -22%.

For the molecule `O=C(NCC(c1ccc2c(c1)OCO2)N1CCN(c2ccccc2)CC1)C(=O)Nc1ccc(F)cc1` (centres undefined), the activation is inactive: -9.46%.

For the molecule `CCOc1ccc(C(=O)c2cn(CC(=O)Nc3ccc(OC)cc3)c3cc4c(cc3c2=O)OCO4)cc1`, the activation was inactive: 1.18%.

Take `Cc1oc(-c2ccc(C(=O)NCCC(C)C)cc2)nc1CS(=O)(=O)c1ccccc1`: the activation was inactive: 44.6%.

In the case of `CC(C)CCn1c(=O)c2cccnc2n(CC(=O)Nc2ccccc2)c1=O`, the activation is inactive: -6.37%.

Take `CCS(=O)(=O)N1CC(=O)N(c2cccc(Cl)c2)C(C)(C(=O)NC2CCCCCC2)C1` (centres undefined): the activation is inactive: -8.37%.

As for `CCOC(=O)c1c(C)[nH]c(C)c1S(=O)(=O)N1CCCC(C(=O)Nc2ncccc2C)C1` (centres undefined), the activation is inactive: 1.5%.

With `N#Cc1c[nH]n2c(NC3CCCC3)c(-c3cccc(Br)c3)nc12`, the activation was inactive: -9.5%.

On to `COC(=O)c1sccc1S(=O)(=O)N(CC(=O)NCc1ccc(C)cc1)c1ccccc1`, for which the activation is inactive: 19.8%.

Take `COc1ccc(N2CCN(C(=O)c3ccc4c(c3)CCN4S(=O)(=O)c3ccccc3)CC2)cc1`: the activation was inactive: -10.4%.

Take `COc1cc(NC(=O)CSc2cc(=O)n(C)c3ccccc23)cc(OC)c1OC`: the activation is inactive: 28.7%.

Turning to `CC(NCc1ccc2c(c1)n(C)c(=O)n2C)c1ccccc1` (centres undefined), the activation was inactive: -3.85%.

Regarding `COc1cccc(-c2cc(C(=O)NCc3ccccc3)no2)c1`, the activation is inactive: 34.2%.

Turning to `Cc1c(C(=O)N(C)Cc2ccccc2)sc2nc(-c3ccc(F)cc3)cn12`, the activation is inactive: 18.4%.

`Cc1cc(C)n2nc(CNC(=O)c3cccc(N(C)C)c3)nc2n1`: the activation was inactive: 12.4%.

On to `COCCCNC(=O)C1CCN(Cc2cc3ccccc3n2Cc2cccc(Cl)c2)CC1`, for which the activation is inactive: 4.37%.

On to `Cc1ccc(-c2cn3c(n2)sc2cc(C(=O)NC4CCCCCC4)ccc23)cc1`, for which the activation was inactive: -12.1%.

As for `CCC12CN3CC(CC)(CN(C1)C3c1c[nH]c3ccccc13)C2=O` (centres undefined), the activation was inactive: -16.4%.

On to `COc1ccc(NS(=O)(=O)c2ccc3c(c2)CC(C)N3C(=O)C2CCC2)cc1OC` (centres undefined), for which the activation was inactive: 5.76%.

On to `O=S(=O)(Nc1nc2n(n1)C(c1ccc(F)cc1)C=C(c1ccc(Cl)cc1)N2)c1ccccc1` (centres undefined), for which the activation is active: 94.8%.

Regarding `CCn1cc(C(=O)N(C)c2cc(C)ccc2C)c2cc(OC)c(OC)cc2c1=O`, the activation was inactive: 4.44%.

With `CSc1nn(CC(=O)Nc2ccc(C)cc2C)c(N)c1S(=O)(=O)c1ccc(Cl)cc1`, the activation is inactive: 37.7%.

As for `COc1ccc(Br)cc1CNC(=O)C1CCN(c2nnc(-n3cccc3CNc3ccc(C)cc3)s2)CC1`, the activation was inactive: -27.4%.

With `O=C(O)c1cc2cc(Cc3cccnc3)ccc2o1`, the activation is inactive: 10%.

With `COc1cc2c(C(=O)N3CCN(c4ccc(F)cc4)CC3)cn(CC(C)C)c(=O)c2cc1OC`, the activation is inactive: 0.897%.

Consider `CCOc1ccccc1NC(=O)C1CCCN(S(=O)(=O)c2cccs2)C1` (centres undefined), for which the activation was inactive: 3.38%.

For `CCCN(Cc1cccs1)C(=O)Nc1cc(C)cc(C)c1`, the activation is inactive: -13.4%.

On to `CCN(CC)C(=O)Cn1c(=O)n(-c2ccc(Cl)cc2)c(=O)c2c3c(sc21)CCCCC3`, for which the activation is inactive: -36.1%.

As to `Cc1nn(C)c2c1c(-c1ccccc1)cc(=O)n2Cc1ccc(F)cc1Cl`, the activation is inactive: -3.44%.

Turning to `CCOc1ccc(N2CC(NC(=O)Cc3cccs3)CC2=O)cc1` (centres undefined), the activation is inactive: 0.493%.

Regarding `COc1ccc(NC(=O)CC2C(=O)N(c3ccc(OC)cc3)C(=O)N2Cc2ccc(OC)c(OC)c2)cc1` (centres undefined), the activation is inactive: 6.59%.

For `COc1ccc(-c2nc3ccccc3o2)cc1NC(=O)c1cccc2c(Cl)cccc12`, the activation is inactive: 0.43%.

`CCOc1ccc(CCNC(=O)CCn2c(=O)c3cccn3c3ccc(F)cc32)cc1OCC`: the activation is inactive: -16.6%.

For `CCOc1ccc(NC(=O)CCc2c(C)nc3c4c(C)cc(C)nc4nn3c2C)cc1`, the activation was inactive: 1.7%.

With `COc1ccc2cc(-c3nc(-c4ccc(N(C)C)cc4)no3)c(=O)oc2c1`, the activation is inactive: -5.21%.

For `Cc1ccc(C)c(CSc2cn(CC(=O)N3CCCC3)c3ccccc23)c1`, the activation is inactive: -0.477%.

Consider `CN(Cc1ccccc1)c1ccc2cc(S(=O)(=O)N3CCCCC3)ccc2n1`, for which the activation was inactive: -0.66%.

For `O=C(CCS(=O)(=O)c1cc(Br)cc2c1N(C(=O)C1CC1)CC2)N1CCN(c2ccccc2)CC1`, the activation is inactive: 2.3%.

`COc1ccc(OC)c(CCNC(=O)c2cnn(-c3ccccc3)c2-n2cccc2)c1`: the activation is inactive: 0%.

For the molecule `CNC(=O)C1CCN(C(=O)N2CC(C)Oc3ccc(Cl)cc32)CC1` (centres undefined), the activation was inactive: -0.104%.

Take `Cc1nnc2c3ccccc3nc(N3CCN(c4ccccc4)CC3)n12`: the activation is inactive: -11.9%.

For `CCOc1ccc(C2CC(=O)c3c([nH]c(C(=O)OCCOc4ccccc4)c3C)C2)cc1` (centres undefined), the activation is inactive: 38.1%.

With `CCOC(=O)C1CCCN(C(=O)c2ccccc2NC(=O)c2nsc3ccccc23)C1` (centres undefined), the activation was inactive: -21.7%.
